# Measurements taken from publication PMC4336329 (PLoS ONE, 2015).
# The campaign covered roughly 310,000 compounds. About 2,200 (0.71%) showed an effect of 50% or more. Effects have a minus sign here. Some of the results follow.
# Molecular target: human ether-à-go-go-related gene (hERG) potassium channel (human, UniProt Q12809)
# Test: primary screen, population patch clamp on CHO cells stably expressing hERG
# Sequence of human ether-à-go-go-related gene (hERG) potassium channel (Q12809 whole entry, looked up): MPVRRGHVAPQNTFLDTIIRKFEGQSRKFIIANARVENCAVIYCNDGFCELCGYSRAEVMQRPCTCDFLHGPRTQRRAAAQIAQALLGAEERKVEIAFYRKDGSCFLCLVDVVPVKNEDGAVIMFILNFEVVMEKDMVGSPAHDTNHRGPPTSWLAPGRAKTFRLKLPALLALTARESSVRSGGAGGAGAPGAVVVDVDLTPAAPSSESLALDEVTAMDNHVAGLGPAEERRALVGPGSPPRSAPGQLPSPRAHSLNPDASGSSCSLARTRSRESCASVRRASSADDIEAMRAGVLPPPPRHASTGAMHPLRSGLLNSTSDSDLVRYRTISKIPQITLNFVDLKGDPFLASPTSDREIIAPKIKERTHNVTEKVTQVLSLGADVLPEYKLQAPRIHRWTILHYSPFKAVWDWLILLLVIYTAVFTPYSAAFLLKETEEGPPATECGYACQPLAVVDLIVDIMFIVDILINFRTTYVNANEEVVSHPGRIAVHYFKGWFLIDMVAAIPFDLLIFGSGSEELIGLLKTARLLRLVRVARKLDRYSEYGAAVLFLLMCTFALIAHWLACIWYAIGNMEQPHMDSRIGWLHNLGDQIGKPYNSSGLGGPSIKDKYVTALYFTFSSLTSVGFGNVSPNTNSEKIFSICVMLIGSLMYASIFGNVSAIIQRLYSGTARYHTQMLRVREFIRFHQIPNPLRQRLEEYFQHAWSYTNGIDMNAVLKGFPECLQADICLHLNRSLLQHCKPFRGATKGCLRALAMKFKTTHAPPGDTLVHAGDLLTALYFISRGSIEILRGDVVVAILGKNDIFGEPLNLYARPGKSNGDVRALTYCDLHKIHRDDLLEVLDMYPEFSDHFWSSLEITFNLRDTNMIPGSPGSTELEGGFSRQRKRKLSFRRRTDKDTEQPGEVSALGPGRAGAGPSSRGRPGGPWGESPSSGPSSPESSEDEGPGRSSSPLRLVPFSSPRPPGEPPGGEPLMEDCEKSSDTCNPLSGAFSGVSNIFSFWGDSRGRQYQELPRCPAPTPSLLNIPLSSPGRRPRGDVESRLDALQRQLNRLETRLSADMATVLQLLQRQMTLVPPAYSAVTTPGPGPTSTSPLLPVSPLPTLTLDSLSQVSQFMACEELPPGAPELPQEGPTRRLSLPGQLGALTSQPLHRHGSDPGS
row,SMILES,"hERG current change (%, negative = inhibition) at 1uM"
1,COc1ccc(-c2nnc3n2-c2ccccc2SC3)cc1OC.Cl,13%
2,COC(=O)[C@@H]1[C@H](CCc2ccccc2)NC(=O)N(Cc2ccccc2)[C@@H]1C,14.4%
3,Cl.O=C(CN1CCN(CCO)CC1)Nc1ccccc1,4.35%
4,O=C1CC(N(Cc2cccs2)C(=O)Nc2ccccc2)C(=O)N1c1ccc(Cl)cc1 (centres unmarked),9.02%
5,O=C(/C=C/c1ccc(Br)cc1)NC(=S)Nc1ccc(S(=O)(=O)Nc2nccs2)cc1,16.2%
6,CN(C)S(=O)(=O)N1CCC(Oc2ccc(C(=O)N3C[C@H]4CC[C@H]3C4)cc2)CC1,2.43%
7,CC1CN(C(=O)CCC(=O)NCCCN2CCN(Cc3ccccc3)CC2)c2cc(Cl)ccc2O1 (centres unmarked),-68.1%
8,Cl.O=C(CN1CCCCC1)Nc1cccc([N+](=O)[O-])c1,1.66%
9,Cc1c(C)c2c(OCC(=O)NCC(C)C)cc3c(c2oc1=O)CCC(C)(C)O3,11.8%
10,O=C(NCCc1cccc(F)c1)C1CCN(S(=O)(=O)c2ccccc2)CC1,3.36%
11,CCc1ccc(Nc2nc3ccccc3c(=O)s2)cc1,4.77%
12,CC(C)(C)OC(=O)CNC(=O)c1nc[nH]c1C(=O)N1CC[NH2+]CC1.[Cl-],10.9%
13,COc1ccc(C(C[N+](=O)[O-])c2c(C)cc3ccccn23)cc1 (centres unmarked),11.5%
14,C=C1CCN([C@H](C(=O)OCc2cccc(C)c2)C(C)C)S(=O)(=O)c2ccccc21,6.92%
15,CCOc1ccc2oc(C(=O)N3CCN(c4ccccc4OCC)CC3)c(C)c2c1,-19.7%
16,O=C1C2C3C=CC(C3=C3CCCCC3)C2C(=O)N1c1ccccc1 (centres unmarked),15.2%
17,COc1ccc(/C(C)=N/Nc2nncc3ccccc23)cc1,13.5%
18,COc1ccc(C(=O)OCC(=O)NCC2CCCO2)cc1S(=O)(=O)N1CCCc2ccccc21 (centres unmarked),5.82%
19,CC1(C)Cc2c(sc(NC(=O)C(=O)NCC3CCCO3)c2C(=O)O)CO1 (centres unmarked),4.66%
20,CCn1cc(C(=O)N2CC(C)CC(C)C2)c(=O)c2cc(S(=O)(=O)N3CCOCC3)ccc21 (centres unmarked),-11.6%
21,COc1ccc(-c2cnc3n2CCCCC3)cc1,2.81%
22,COc1ccc2c(c1)OC(c1ccccc1)(C(F)(F)F)NC2=O (centres unmarked),4.44%

row,SMILES,"hERG current change (%, negative = inhibition) at 1uM"
1,CCc1cccc(C)c1NC(=O)CSc1nc2ccncc2[nH]1,3.35%
2,O=C(CN(Cc1ccccc1)C(=O)CNS(=O)(=O)c1ccc(Cl)cc1)NCC1CCCO1 (centres unmarked),9.81%
3,O=C(C1CCCO1)N1CCN(C(=S)Nc2cccc(F)c2)CC1 (centres unmarked),16.3%
4,COc1cc2c(cc1OC)C(=O)N1[C@H]3c4ccccc4OC[C@@H]3[C@H](c3ccccc3)[C@]1(C)C(=O)N2,10.6%
5,COCCNC(=O)CN1C(=O)NC2(CCCc3ccccc32)C1=O (centres unmarked),7.39%
6,Cc1nc2ccccc2nc1N1CCOCC1,5.1%
7,COc1cccc2c1C(=O)CC2NC(=O)C(F)(F)F (centres unmarked),2.93%
8,COc1cc(C(c2sc3nc(C)nn3c2O)N2CCC3(CC2)OCCO3)cc(OC)c1OC (centres unmarked),36%
9,CCNc1nc(C23CC4CC(CC(C4)C2)C3)cs1.Cl,10.1%
10,O=C(CCc1nc(-c2ccccc2F)no1)NC1CCCCCC1,1.09%
11,CCOc1nc(-c2ccncc2)nc2ccccc12,-1.42%
12,COc1ccc(CNC(=O)/C=C/c2ccc3[nH]cc(CCN(C)C)c3c2)cc1,9.89%
13,Cc1ccc(-c2ncns2)cc1,2.37%
14,O=C(COC(=O)Cc1ccc2c(c1)OCCO2)Nc1ccc(S(=O)(=O)N2CCCC2)cc1,9.55%
15,CCCn1c(N2CCN(C)CC2)nc2c1c(=O)[nH]c(=O)n2C,8.02%
16,CCn1cc(CN2CCCC(C(=O)c3ccc(-c4ccccc4)cc3)C2)cn1 (centres unmarked),8.04%
17,COc1cc(-c2nnc(SCC(=O)N(Cc3ccccc3)C(C)(C)C)o2)cc(OC)c1OC,7.12%
18,COc1ccc(C2CC(=O)c3cnc(N4CCc5ccccc54)nc3C2)cc1OC (centres unmarked),11.8%
19,O=C(COC(=O)COc1ccccc1Cl)Nc1ccccc1OC(F)F,17.7%
20,O=C(N/N=C/c1c[nH]c2ccccc12)c1cccc(O)c1,18.4%
21,COc1ccc(-c2nn(CCC(=O)O)cc2/C=C2\SC(N)=NC2=O)cc1OC,11%
22,COCC1CCCN(C(=O)c2cc(COc3cccc4cccnc34)on2)C1 (centres unmarked),7.44%

row,SMILES,"hERG current change (%, negative = inhibition) at 1uM"
1,O=C(NCCc1ccc(Cl)cc1)C1CCN(S(=O)(=O)c2cccs2)CC1,5.64%
2,CNC(=O)c1cc2c(s1)CCCCCC2,-0.352%
3,CCOC(=O)c1cc2c(ccn2C)n1Cc1ccc(Cl)cc1,10.5%
4,C=CCn1c(CNC(=O)c2cccs2)nnc1SCc1ccc(Cl)cc1Cl,1.12%
5,CC(C)N(CCCNC(=O)Cn1c(=O)c2cccn2c2ccccc21)Cc1ccccc1,-12.2%
6,Cc1noc(C)c1COC(=O)CCN1c2ccccc2Sc2ccccc21,12.9%
7,CN(Cc1ccccc1)C(=O)C1CCN(S(=O)(=O)c2ccc3nc4c(c(C(=O)O)c3c2)CCCC4)CC1,0.217%
8,Cc1cccc(C)c1OCC(=O)N/N=C/c1ccncc1,10.8%
9,COc1ccc(OC)c(NC(=O)C2CCCN(S(=O)(=O)c3c(C)noc3C)C2)c1 (centres unmarked),-1.52%
10,CCSc1nnc(NC(=O)CSc2nc3c(c(=O)n2CC)SC(C)C3)s1 (centres unmarked),11%
11,NC(=O)C1CCN(C(=O)c2cn(-c3ccccc3)nc2-c2cccnc2)CC1,7.62%
12,COc1ccc(/C=C/C2=CC(C)(C)NC(=S)N2)cc1OC,19.9%
13,Cc1ccc(S(=O)(=O)N(CCO)Cc2ccccc2)cc1,6.57%
14,Cc1cccc(NC(=O)c2cc3c([nH]c4ccccc43)c(C)n2)c1C,11.3%
15,O=C(CNC(=O)OCc1ccccc1)NC1CCCCNC1=O (centres unmarked),14.1%
16,COc1ccc(C(=O)Nc2ccc(N3CCN(C(=O)c4ccccc4)CC3)cc2)cc1[N+](=O)[O-],2.67%
17,CCOC(=O)c1ccc(N2C(=O)c3n[nH]c(-c4ccco4)c3C2c2cccc([N+](=O)[O-])c2)cc1 (centres unmarked),-5.23%
18,O=C(CN(c1ccc2c(c1)OCCO2)S(=O)(=O)c1ccccc1)NCc1ccc(Cl)cc1,9.51%
19,Cc1csc(NC(=O)CSCc2c(C)noc2C)n1,8.44%
20,Fc1ccc2c(c1)C(c1ccncc1)=NNC(c1cccnc1)=N2,3.07%
21,CCCCCSc1ncccc1C(=O)O,18.8%
22,NC(=O)CC(NC(=O)c1cccc(Br)c1)c1ccc(N2CCN(c3ccccn3)CC2)c([N+](=O)[O-])c1 (centres unmarked),7.47%

row,SMILES,"hERG current change (%, negative = inhibition) at 1uM"
1,CCN1CCN(c2cc(C)c3cc(NC(=S)N4CCCCC4)ccc3n2)CC1,0.276%
2,CC(=O)N1CCN(c2nnc(-c3ccccc3)c3ccccc23)CC1,11%
3,Cc1ccccc1NC(=O)C(C)c1ccc(-c2ccccc2)c(F)c1 (centres unmarked),-1.72%
4,Cc1ccc2c(c1)c1c3n2CCN(C(=O)CCl)C3CCC1 (centres unmarked),12.2%
5,Br.N=C1c2ccccc2CN1NC(=O)c1cccc(S(=O)(=O)N2CCCCC2)c1,14.5%
6,C#CCOCCOCCOCCNc1nc(N2CCN(C(=O)C(Cc3ccc(O)cc3)n3cc(C(N)CC(C)C)nn3)CC2)nc(N2CCN(C(=O)C(Cc3cc4ccccc4[nH]3)n3cc(C(N)C(C)CC)nn3)CC2)n1.Cl (centres unmarked),10.3%
7,NS(=O)(=O)c1ccc(CNC(=O)c2ccc(Cl)cc2[N+](=O)[O-])cc1,3.89%
8,Cc1cccc(-n2cc(CN3CCN(C(=O)c4ncn[nH]4)CC3)c(-c3cccc(F)c3)n2)c1,12.3%
9,CN(C)c1cccc(C(=O)NC2CCCc3ccccc32)c1 (centres unmarked),11.3%
10,Cc1oc2ccc(O)c(CN(C)C)c2c1C(=O)c1ccccc1,-2.23%
11,CCC(C(=O)O)N1C(=O)c2ccccc2C1=O (centres unmarked),8.49%
12,CC(C)NC(=O)c1ccc(N(Cc2ccc(Cl)cc2)S(C)(=O)=O)cc1,6.42%
13,Cc1nc(SCC(=O)c2ccccc2)[nH]c(=O)c1Oc1ccc(Cl)cc1,20.9%
14,CCCC(=O)NC(Nc1ccccc1F)C(Cl)(Cl)Cl (centres unmarked),1.86%
15,COC(=O)Cc1[nH]nc2c1C(c1c[nH]c3ccccc13)C(C#N)=C(N)O2 (centres unmarked),17.1%
16,O.O=c1c(O)c(-c2ccc(O)c(O)c2)oc2cc(O)cc(O)c12,18.6%
17,Clc1ccc(/C=C/c2nc(Cl)c(-c3ccc(Cl)cc3)c(Cl)n2)cc1,7.01%
18,O=C1c2ccccc2NC(c2ccc(Cl)cc2Cl)N1Cc1ccccc1 (centres unmarked),-5.12%
19,Cc1ccccc1NC(=S)NNC(=O)c1ccncc1,-11%
20,CC(=O)CSc1nc2c(c(=O)[nH]c(=O)n2C)n1Cc1ccccc1Cl,14.7%
